In PubChem BioAssay (NCI) one finds GI50 and TGI data, which are given here for two molecules.

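These data come from cells grown in 96-well plates and exposed to compound for 48 hours at five concentrations. Abbreviation: GI50, concentration required for 50% inhibition of growth. The concentration for full growth arrest is given as TGI.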

The assay concerns NCI-H322M lung. Kind of assay: NCI anticancer screen, dose series, 48 h.

Take `Cn1ccnc1C(=O)/C=C/c1ccc(NC(=O)Nc2ccccc2)cc1`: the GI50 is 17.4 µM and the TGI was 60 µM.

As to `CC(C)(C)Nc1nc2c(OCCc3ccccc3)cccn2c1-c1cccc(Oc2ccccc2)c1`, the GI50 was 9.99 µM and the TGI was above 100 µM.
